Reference: PubChem BioAssay AID1347073 (National Center for Advancing Translational Sciences (NCATS), 2019)
Among all 45,000 compounds or so, about 200 (0.44%) were called active. Inconclusive results (about 7%) are left out. The call rests on the fitted dose curve; in most records, active means well fitted activation curve with a large enough effect; inconclusive means small, poorly fitted or top-dose-only effect; inactive means no such curve, though single readings can be large or run the other way. The list shows a part of the results.

Assay: qHTS of TDP-43 Inhibitors: NCGC Sytravon Library Screen; further: 0% is about no effect; nearly all actives have a fitted effect of over 55% in size
Conditions: yeast TDP-43 toxicity rescue, BacTiter-Glo growth, 24 h; series mostly up to 46.1 µM; growth rescue (activation): at the top concentration
Method in brief: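 TDP-43-expressing yeast, pregrown in raffinose, seeded at OD600 0.02 in galactose medium with compound for 24 hr at 30 deg C. Growth read by BacTiter-Glo luminescence, so rescue of toxicity appears as activation.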

SMILES | growth rescue (activation)
Cc1nc2cc(NS(=O)(=O)c3cccc(F)c3)ccc2s1 | inactive: 5.5%
CCOC(=O)C1=C(C)NC(C)=C(C(=O)OCC)C1C(=O)OCC(=O)NC1CCCCC1 | inactive: -24%
COc1ccc(C(NC(=O)c2cc(OC)ccc2OC)c2ccccc2)cc1 (centres undefined) | inactive: 19.5%
CC(C)c1nnc(NC(=O)CCS(=O)(=O)Cc2ccccc2)s1 | inactive: -14.6%
O=C(CN1CCOCC1)NCCNS(=O)(=O)c1ccccc1 | inactive: 4.48%
Cc1cnc(C(=O)OCC(=O)Nc2ccc(C)c(S(=O)(=O)N3CCCCC3)c2)cn1 | inactive: 3.75%
C[n+]1c2n(c3ccccc31)N=C(c1cc(C(C)(C)C)c(O)c(C(C)(C)C)c1)CS2 | inactive: -12.1%
COc1ccc(N(CC(=O)NCc2ccccc2)C(=O)Cn2nnc(-c3ccccc3F)n2)cc1OC | inactive: 8.85%
Cc1ccccc1Nc1c(-c2cc(Br)ccc2F)nc2ccccn12 | inactive: -9.01%
CCOC(=O)CCc1c(C)n[nH]c1C | inactive: 5.21%
CSc1cccc(NC(=O)CCCNC(=O)c2ccc(Cl)cc2)c1 | inactive: 12.2%
COc1ccc(NC(=O)C2CC(=O)N/C(=N/N=C/c3ccco3)S2)cc1 (centres undefined) | inactive: -13.5%
Cc1c(Cl)cnc(NC(=O)COC(=O)c2ccc([N+](=O)[O-])s2)c1Cl | inactive: -93.1%
Cc1cc(C)c2c(CN3CC(C)OC(C)C3)cc(=O)oc2c1C (centres undefined) | inactive: 18.7%
CS(=O)(=O)c1ccc2nc(NC(=O)c3ccc(Cl)cc3)sc2c1 | inactive: 5.48%
Cc1ccc(CS(=O)(=O)CCC(=O)NCc2ccccn2)cc1 | inactive: -3.92%
CCCCc1ccc(S(=O)(=O)NCCCN2CCCC2=O)cc1 | inactive: 20.1%
Cc1ccc(S(=O)(=O)CCC(=O)NNC(=O)CN(C)S(=O)(=O)c2ccc(C)cc2)cc1 | inactive: -9.42%
CN(CC(=O)N1CCCCCC1)S(=O)(=O)c1ccc(F)cc1 | inactive: -6.59%
CNc1ccccc1C(C)(C)c1cc(-c2cc(C)cc(C)c2)no1 | inactive: 0.649%
CC(C)CN(C(=O)CSc1nnnn1-c1ccccc1)c1c(N)n(CC(C)C)c(=O)[nH]c1=O | inactive: -2.06%
O=c1cc(CN2CCN(c3ccc(F)cc3)CC2)nc2sccn12 | inactive: 8.13%
O=c1cc(N2CCCC2)c(-c2ccccc2)n[nH]1 | inactive: -12.1%
Cc1ccc(NC(=O)C(=O)NCCN2CCN(S(C)(=O)=O)CC2)cc1 | inactive: -5.26%
COc1ccc(C(=O)CCC(=O)Nc2cc(Cl)c(O)c(Cl)c2)cc1 | inactive: -10.1%
O=C(CN1CCC(NC(=O)Nc2ccccc2)CC1)Nc1ccc([N+](=O)[O-])cc1 | inactive: 5.96%
CCC(c1c(C)[nH]oc1=O)c1c(C)[nH]oc1=O | inactive: -6.4%
Cn1cc(C(=O)N/N=C/C2=C(N3CCOCC3)C(=C/c3ccc([N+](=O)[O-])cc3)/CC2)ccc1=O | inactive: 18.5%
O=c1cc(NCc2ccccc2)nc2n1CCCS2 | inactive: 0.47%
